These results are taken from patent US12371675B2, “Process and microorganism for synthesis of adipic acid from carboxylic acids” (THE GOVERNING COUNCIL OF THE UNIVERSITY OF TORONTO, priority 2015, dated 2025).

This test addresses Mycobacterium abscessus carboxylate reductase MAB_4714c, SEQ ID NO: 36 (Mycobacteroides abscessus, UniProt B1MLD7). Kind of test: CAR kinetics, ATP/NADPH dependent carboxylic acid reduction.

For `O=C(O)CCCO` [4-hydroxybutyric acid], the catalytic efficiency (kcat/Km) stood at 70.81 ± 1.96 M⁻¹ s⁻¹.
As to `O=C(O)CCCCC(=O)O` [adipic acid], the kcat/Km was 89.55 ± 3.07 M⁻¹ s⁻¹.

Usually kcat/Km stands for the second-order rate constant that governs catalysis at low substrate concentration.
